This is an account of results in the RNAGym collection of RNA variant scans (doi:10.7554/elife.90254).

The chains are these.
B1: LINE1-mini (parent)
chain: GGCAGAGCUCAACACAGCGUGGCAAAGUGGCUGUGGCUAGACUGCC

Read counts are not given, so values of variants with three or more changes are uncertain.

The variants in this data set derive from B1. The data set can be described thus: self-cleavage, relative activity (ratio to wild type); higher = more cleavage; in vitro, sequencing; the parent is a self-cleaving ribozyme.
As for C10U C13U A14G G27U, the self-cleavage turned out to be 0.02.

With G7A G21A A25U U28A, the self-cleavage stood at 0.03.

Take G33A U34G G36A: the self-cleavage was determined as 0.13.

Take C8G U20A G22C C31A U38G: the self-cleavage turned out to be 0.08.

As for A14G C42U G44A C46G, the self-cleavage worked out at 0.04.

On to G2A C3G G17U A26G G40A U43C C45G, for which the self-cleavage was found to be 0.07.

For G17A G21U U32A G33U C37A, the self-cleavage was determined as 0.02.

On to C3U A26U G35C A41U, for which the self-cleavage was 0.1.

With G1A C13G G22U G29A, the self-cleavage is 0.44.

With C8U C13A C18A G29C G35A C42G C46U, the self-cleavage stood at 0.03.

C10A C18A U38G: the self-cleavage was 0.

For the variant A12G C13A C15U G17U G27C, the self-cleavage stood at 0.02.

As to C13G G33C C46U, the self-cleavage came out at 0.18.

As for A4G A16G A25U, the self-cleavage is 0.02.

Consider A11C U20G G33A, for which the self-cleavage is 0.01.

In the case of G7C U9G A41U, the self-cleavage worked out at 0.05.

Regarding G1A U32G C42U, the self-cleavage worked out at 0.08.

For the variant A4G A16C A41U, the self-cleavage was 0.01.

For U9C A25G G44A, the self-cleavage stood at 0.07.

For the variant A25C A26U C31G, the self-cleavage came out at 0.06.

C3U C10A G21U G35C U43G: the self-cleavage is 0.01.

A6G U20A G33A: the self-cleavage was 0.03.

In the case of C3U C8G G40U, the self-cleavage came to 0.04.

Turning to A6U G30C G33A, the self-cleavage was 0.

Turning to G2A A4U C13G G17C C18U, the self-cleavage came out at 0.18.

Regarding A6C C10U G17A U34A G36U, the self-cleavage was 0.06.

In the case of C8A G19U C23U A39U, the self-cleavage was 0.02.

Turning to A14U G17U C23U G30A, the self-cleavage amounted to 0.03.

Turning to A11C C37A A39G, the self-cleavage was 0.03.

In the case of C15A G19C C23U C42U, the self-cleavage stood at 0.01.

In the case of C13G A16C G35U C46A, the self-cleavage came out at 0.65.

G1U G2U A14G: the self-cleavage worked out at 0.02.

For the variant A6G A26U C31A, the self-cleavage was 0.

On to C23G A26C C42G, for which the self-cleavage was 0.02.

As to G17U A24G G36U, the self-cleavage is 0.01.

Take A14U G19A U34A: the self-cleavage came to 0.25.

Turning to G21A A26U G29U C42A G44A, the self-cleavage amounted to 0.02.

Consider C3A A6G C15A, for which the self-cleavage came to 0.21.

Take G22C A24U C37U G44A: the self-cleavage is 0.01.

Consider G21U C23U C37A, for which the self-cleavage is 0.03.

With A14G G29U C31A, the self-cleavage came out at 0.03.

For the variant G1A G7C A11U, the self-cleavage came out at 0.05.

Regarding A6G C31G U38C C42A C46A, the self-cleavage stood at 0.04.

Turning to A6U U20C A41C, the self-cleavage came out at 0.02.

Consider G2U C18A A26C, for which the self-cleavage was 0.06.

On to G7C C13U G21A G27C G30U G36C, for which the self-cleavage came to 0.31.

Consider C18U U34A A41U C42A C46U, for which the self-cleavage worked out at 0.07.

In the case of C10A A12G C13A C23U G35A A39G A41C, the self-cleavage was 0.

G5A A25U G27U: the self-cleavage came to 0.09.

Take G2C G19U G35U G40C U43A: the self-cleavage turned out to be 0.

On to C8A A26U G40U C46G, for which the self-cleavage was determined as 0.16.

For A11U A16U C18U A39G, the self-cleavage is 0.01.

For G19U C31U G33U, the self-cleavage was determined as 0.09.

For the variant C8A G36U G44C, the self-cleavage is 0.34.

Consider A4G C15A U32G, for which the self-cleavage was determined as 0.

Consider G2A C13A U20A G22U G40A, for which the self-cleavage amounted to 0.1.

For the variant A4G C8U U9A, the self-cleavage stood at 0.27.

For the variant C8G G17C G19C G21A C42A, the self-cleavage amounted to 0.03.

Regarding C8U C10A G21C C23U C45U, the self-cleavage was 0.01.

As for A4U C8A G21U G40U, the self-cleavage was 1.16.

As to U9C C10G U43A, the self-cleavage is 0.

With C3G G30C G35U, the self-cleavage turned out to be 0.1.

For A6U C23A A24C A41C, the self-cleavage stood at 0.06.

On to G1A G21U C42A, for which the self-cleavage was 0.24.

In the case of G19U G22C G27C G44U, the self-cleavage is 0.62.

For the variant U20C G27U A41C, the self-cleavage came to 0.06.

Consider C8A G22A G29A, for which the self-cleavage is 0.06.

In the case of G17U G30U C31G U32G, the self-cleavage came to 0.04.

In the case of C10G G35U C45U, the self-cleavage turned out to be 0.02.

Turning to A12U C23G U28G, the self-cleavage was 0.02.

For U9C C10G G21U G27A G30C U32A, the self-cleavage was found to be 0.01.

For G1A U20G A41G, the self-cleavage is 0.1.

A4U G5C G22U: the self-cleavage is 0.06.

Turning to A6C G30A G36U G44A, the self-cleavage came to 0.05.

In the case of C18G G35C G36C G40C, the self-cleavage turned out to be 0.02.

G5U G29A C45G: the self-cleavage turned out to be 0.02.

In the case of G5U U20G G21C A25G, the self-cleavage stood at 0.1.

As for G1U C37A C46G, the self-cleavage was 0.01.

Regarding G7A G29C C42U, the self-cleavage was determined as 0.11.

Turning to G17A A24C G29C, the self-cleavage was found to be 0.02.

Take C31G G40C A41G: the self-cleavage turned out to be 0.03.

For the variant G19U U20A C37G, the self-cleavage was determined as 0.02.

As for G5U A12G A24U, the self-cleavage turned out to be 0.

A4G U9C C13G: the self-cleavage was 0.01.

Turning to A6C G22U G35C, the self-cleavage turned out to be 0.04.

In the case of A4G G17A A25C, the self-cleavage stood at 0.08.

Take U38A C42G G44A C45A: the self-cleavage was found to be 0.

Take A6C C18U G30A: the self-cleavage stood at 1.11.

For G22U A25U A41U C45A, the self-cleavage came to 0.1.

Regarding C3U A11U G35U, the self-cleavage was 0.02.

For the variant C10A U20A A24U C37U, the self-cleavage worked out at 0.

As to G17C U20A G27A U38C, the self-cleavage is 0.45.

C15U G21U C23A: the self-cleavage turned out to be 0.19.

For the variant U9C C10A G27U A41U, the self-cleavage was 0.02.

For G30C G36U C37A, the self-cleavage stood at 0.07.

For the variant A24C G44U C46U, the self-cleavage worked out at 0.14.

Take G40A C42A C45A C46G: the self-cleavage was 0.06.

As for U20A A25C A39U C46U, the self-cleavage amounted to 0.06.

As for C8U G21A U28G, the self-cleavage came to 0.22.

On to A11C G21C U34G G40U, for which the self-cleavage amounted to 0.

Turning to A6U C15G G22U, the self-cleavage was determined as 0.03.

As for A11U G22C A24C G33U G35U C42G, the self-cleavage came to 0.

As to A16C G22A A25U G30C G33A, the self-cleavage came out at 0.05.

Consider A4U A16U G40A, for which the self-cleavage came out at 0.28.

G1C G7C C15A A26C G27A C45G: the self-cleavage stood at 0.01.

Consider C8A C37U A39U, for which the self-cleavage was determined as 0.29.

A11C C18A U38C: the self-cleavage turned out to be 0.03.

Take C3G C13U C15U G21U: the self-cleavage came to 0.21.

For the variant C3A A16C G27U G44C, the self-cleavage is 0.16.

On to G1U A4G C18U, for which the self-cleavage is 0.26.

In the case of C10G A16C A24U G36C U43C, the self-cleavage was found to be 0.

With C31A G33C C37U, the self-cleavage came to 0.16.

For the variant G1U G44U C45G, the self-cleavage is 0.06.

Consider G17A C31G G33U G40U, for which the self-cleavage was determined as 0.02.

A6G A14G U28C G33A G44U: the self-cleavage turned out to be 0.11.

For A6C U9G C10U A41U, the self-cleavage turned out to be 0.05.

As for G7A U28C A39U, the self-cleavage stood at 0.22.

Consider G19U G29U G33C, for which the self-cleavage is 0.03.

Consider A4U A11G U20A G21A, for which the self-cleavage came to 0.02.

C3G G27C C46A: the self-cleavage came to 0.07.

With C10G G19U C31A G40C A41C G44A, the self-cleavage turned out to be 0.

In the case of U9C C23U G36A, the self-cleavage was determined as 0.02.

Consider U9C C13U G27C C42A, for which the self-cleavage was 0.

For the variant A26U G30C G35C C37G, the self-cleavage worked out at 0.03.

Regarding G5U G17C U20C C45A, the self-cleavage is 0.02.

As to A6G G7U A12G C15A G44C, the self-cleavage was found to be 0.01.

For the variant G2U G22A A39U C45G, the self-cleavage worked out at 0.09.

Turning to A11C C13G G22U U34A, the self-cleavage amounted to 0.

Consider G2C C8A C23U C37A, for which the self-cleavage stood at 0.05.

As for A25U U28A G36A C42A G44U, the self-cleavage was found to be 0.19.

As for U9A U32C G44U, the self-cleavage amounted to 0.15.

As for C10G C15U G17A A24U, the self-cleavage turned out to be 0.02.

With G7A A12U G19U G36A, the self-cleavage came to 0.03.

In the case of C18U G19A G21A G27U G29C U32A, the self-cleavage was determined as 0.34.

In the case of A4U G5C G21U G22C U28C G29C, the self-cleavage was 0.03.

As to G1C G7A C15G, the self-cleavage is 0.01.

For the variant U9A G19A C45A, the self-cleavage was 0.28.

Take G1A C13A G36A C46G: the self-cleavage was 0.63.

With G33U A39C C46G, the self-cleavage came to 0.09.

For A4U U9G G22A, the self-cleavage stood at 0.28.

For G1C U20G A25U, the self-cleavage stood at 0.08.

Consider G5C G36U A39G, for which the self-cleavage came out at 0.02.

As to A16C G21A C23G C42U, the self-cleavage is 0.05.

As to A14C C15G A25U G27U C31G G44U, the self-cleavage was 0.

For C10A G19C U34C G36C C45U, the self-cleavage is 0.01.

Turning to A6U G17U G27U, the self-cleavage turned out to be 0.03.

As for G5U A39G G40C, the self-cleavage stood at 0.01.

As to C15U A26U G29A C31A, the self-cleavage was determined as 0.07.

In the case of A12C C23G G30A C31A C46U, the self-cleavage was 0.

Consider G5U C31U U34G, for which the self-cleavage worked out at 0.01.

With G2U G19C C23A A25U C31U G33A A41U, the self-cleavage amounted to 0.06.

C3U A4C G21U G27U: the self-cleavage came out at 0.11.

As to U9A C10U U20G G27U U38A, the self-cleavage was found to be 0.04.

Regarding C3A A25U U34G, the self-cleavage came to 0.17.

For G2C U34A A41G, the self-cleavage stood at 0.09.

For the variant G1U G7U U9G A25G C37G G44U, the self-cleavage was 0.08.

For the variant G2C G5C C10G A24C G35C G40A, the self-cleavage amounted to 0.01.

Turning to G2U C10G A11C A26G C45U, the self-cleavage is 0.

As for G7U G21U G29C C31A G40C A41U C46A, the self-cleavage amounted to 0.06.

In the case of A24G C31A C37G, the self-cleavage amounted to 0.04.

For the variant U9A G35A C42U, the self-cleavage was determined as 0.24.

Regarding C8G G21A A26U U32C G40C, the self-cleavage came out at 0.04.

With G5C G33A G40U, the self-cleavage was 0.03.

Turning to G2A A6G U32G C45G, the self-cleavage is 0.14.

On to C13A A14U A16U G17U G21C, for which the self-cleavage is 0.08.

Turning to C3A C18U G21U G40A G44U, the self-cleavage is 0.06.

Turning to A11U A16U C23A G30C G40C, the self-cleavage came to 0.01.
